# Experimental data published in the GPR68 mutational scans of Howard et al. (2025).
# The least precise scores are not listed. The source holds two more conditions with little spread; they are left out. Read del as a deletion of the residues named and ins as an insertion between two positions. For some of these results: The concentration of ogerin is not given here.
# B1: GPR68, Q15743 (parent)
# chain: MGNITADNSSMSCTIDHTIHQTLAPVVYVTVLVVGFPANCLSLYFGYLQIKARNELGVYLCNLTVADLFYICSLPFWLQYVLQHDNWSHGDLSCQVCGILLYENIYISVGFLCCISVDRYLAVAHPFRFHQFRTLKAAVGVSVVIWAKELLTSIYFLMHEEVIEDENQHRVCFEHYPIQAWQRAINYYRFLVGFLFPICLLLASYQGILRAVRRSHGTQKSRKDQIQRLVLSTVVIFLACFLPYHVLLLVRSVWEASCDFAKGVFNAYHFSLLLTSFNCVADPVLYCFVSETTHRDLARLRGACLAFLTCSRTGRAREAYPLGAPEASGKSGAQGEEPELLTKLHPAFQTPNSPGSGGFPTGRLA
# Columns and labels:
# [1] = variants of: B1; assay: cAMP reporter score (Enrich2 score, wild type = 0); higher = more signal; HEK293T, FACS bins
# [2] = variants of: B1; assay: surface expression score (Enrich2 score, wild type = 0); higher = more signal; HEK293T, FACS bins
Variant,cAMP reporter score ([1]; pH 5.5),cAMP reporter score ([1]; pH 6),"cAMP reporter score ([1]; pH 6, modulator: ogerin)","cAMP reporter score ([1]; pH 6.5, modulator: ogerin)",surface expression score [2]
MGNITADNSSMSCTIDHTIHQTLAPVVYVTVLVVGFPANCLSLYFGYLQIKARNELGVYLCNLTVADLFYICSLPFWLQYVLQHDNWSHGDLSCQVCGILLYENIYISVGFLCCISVDRYLAVAHPFRFHQFRTLKAAVGVSVVIWAKELLTSIYFLMHEEVIEDENQHRVCFEHYPIQGWQRAINYYRFLVGFLFPICLLLASYQGILRAVRRSHGTQKSRKDQIQRLVLSTVVIFLACFLPYHVLLLVRSVWEASCDFAKGVFNAYHFSLLLTSFNCVADPVLYCFVSETTHRDLARLRGACLAFLTCSRTGRAREAYPLGAPEASGKSGAQGEEPELLTKLHPAFQTPNSPGSGGFPTGRLA [A180G],1.85,-0.359,1.36,1.28,1.11
MGNITADNSSMSCTIDHTIHQTLAPVVYVTVLVVGFPANCLSLYFGYLQIKARNELGVYLCNLTVADLFYICSLPFWLQYVLQHDNWSHGDLSCQVCGILLYENIYISVGFLCCISVDRYLAVAHPFRFHQFRTLKAAVGVSVVIWAKELLTSIYFLMHEEVIEDENQHRVCFEHYPIQHWQRAINYYRFLVGFLFPICLLLASYQGILRAVRRSHGTQKSRKDQIQRLVLSTVVIFLACFLPYHVLLLVRSVWEASCDFAKGVFNAYHFSLLLTSFNCVADPVLYCFVSETTHRDLARLRGACLAFLTCSRTGRAREAYPLGAPEASGKSGAQGEEPELLTKLHPAFQTPNSPGSGGFPTGRLA [A180H],-0.915,–,0.522,0.624,0.161
MGNITADNSSMSCTIDHTIHQTLAPVVYVTVLVVGFPANCLSLYFGYLQIKARNELGVYLCNLTVADLFYICSLPFWLQYVLQHDNWSHGDLSCQVCGILLYENIYISVGFLCCISVDRYLAVAHPFRFHQFRTLKAAVGVSVVIWAKELLTSIYFLMHEEVIEDENQHRVCFEHYPIQIWQRAINYYRFLVGFLFPICLLLASYQGILRAVRRSHGTQKSRKDQIQRLVLSTVVIFLACFLPYHVLLLVRSVWEASCDFAKGVFNAYHFSLLLTSFNCVADPVLYCFVSETTHRDLARLRGACLAFLTCSRTGRAREAYPLGAPEASGKSGAQGEEPELLTKLHPAFQTPNSPGSGGFPTGRLA [A180I],0.434,-1.26,0.301,-0.446,-0.545
MGNITADNSSMSCTIDHTIHQTLAPVVYVTVLVVGFPANCLSLYFGYLQIKARNELGVYLCNLTVADLFYICSLPFWLQYVLQHDNWSHGDLSCQVCGILLYENIYISVGFLCCISVDRYLAVAHPFRFHQFRTLKAAVGVSVVIWAKELLTSIYFLMHEEVIEDENQHRVCFEHYPIQKWQRAINYYRFLVGFLFPICLLLASYQGILRAVRRSHGTQKSRKDQIQRLVLSTVVIFLACFLPYHVLLLVRSVWEASCDFAKGVFNAYHFSLLLTSFNCVADPVLYCFVSETTHRDLARLRGACLAFLTCSRTGRAREAYPLGAPEASGKSGAQGEEPELLTKLHPAFQTPNSPGSGGFPTGRLA [A180K],0.805,-0.493,0.615,0.719,0.771
